Among all 3,200 compounds or so, about 110 (3.4%) showed an effect of 50% or more. The list shows a part of the results.
tested on: T1, V. cholerae SAD30; parameters: species or system S. aureus MSSA476 (TSB) or V. cholerae SAD30 (LB); 384-well bacterial growth screen at 25 uM, OD600 relative to DMSO control; details: relative growth, OD600, LB; 25 µM; inhibitor
T1 construct: SAD30

SMILES | % of control remaining
c1ccc(CSSCc2ccccc2)cc1 [10-O21, [(benzyldisulfanyl)methyl]benzene] | 100.37%
CNC(=O)C(C#N)=Cc1cccc(-c2ccncc2)c1 [9-L14, 2-cyano-N-methyl-3-[3-(pyridin-4-yl)phenyl]prop-2-enamide] | 88.1713%
COc1ccccc1NC(=O)c1ccc(NC(=O)C(C)Cl)cc1 (stereo not shown) [5-C17, 4-(2-chloropropanamido)-N-(2-methoxyphenyl)benzamide] | 85.5732%
N#CC(=Cc1ccc(Cl)c(Cl)c1)C(=O)NCc1ccccc1 [8-B07, N-benzyl-2-cyano-3-(3,4-dichlorophenyl)prop-2-enamide] | 66.6893%
O=C(CCl)Nc1ccc(Oc2cccc(Cl)c2)cc1 [6-C18, 2-chloro-N-[4-(3-chlorophenoxy)phenyl]acetamide] | 55.0574%
O=C(CCl)c1cc2c3c(c1)CC(=O)N3CCC2 [10-G16, 6-(2-chloroacetyl)-1-azatricyclo[6.3.1.0,4,12]dodeca-4(12),5,7-trien-2-one] | 27.7421%
O=C(CCl)Nc1ccc2ccccc2c1 [4-B12, 2-chloro-N-(naphthalen-2-yl)acetamide] | 102.135%
C=CC(=O)Nc1cc(NC(=O)c2ccc([N+](=O)[O-])o2)ccc1F [3-J04, N-[4-fluoro-3-(prop-2-enamido)phenyl]-5-nitrofuran-2-carboxamide] | -0.1875%
N#CC(=Cc1cccc2nccn12)C(=O)Nc1ccccc1 [9-M05, 2-cyano-3-{imidazo[1,2-a]pyridin-5-yl}-N-phenylprop-2-enamide] | 91.9782%
C=CC(=O)Nc1ccc2c(c1)CCO2 [1-O11, N-(2,3-dihydro-1-benzofuran-5-yl)prop-2-enamide] | 88.4903%
CCc1ccccc1NC(=O)CN(C)C(=O)C(C)Cl (stereo not shown) [4-P05, 2-chloro-N-{[(2-ethylphenyl)carbamoyl]methyl}-N-methylpropanamide] | 120.078%
C=CC(=O)Nc1ccc(OC)c(COC)c1 [3-B06, N-[4-methoxy-3-(methoxymethyl)phenyl]prop-2-enamide] | 110.439%
Cc1cc(C(=O)CCl)c(C)n1-c1ccc(OC(F)F)c(Cl)c1 [10-K04, 2-chloro-1-{1-[3-chloro-4-(difluoromethoxy)phenyl]-2,5-dimethyl-1H-pyrrol-3-yl}ethan-1-one] | 96.6297%
CC(Cl)C(=O)Nc1ccc(SC(F)F)cc1 (stereo not shown) [4-L09, 2-chloro-N-{4-[(difluoromethyl)sulfanyl]phenyl}propanamide] | 88.1604%
N#CC(=Cc1ccc(F)c([N+](=O)[O-])c1)C(=O)Nc1ccc(F)cc1 [8-D04, 2-cyano-3-(4-fluoro-3-nitrophenyl)-N-(4-fluorophenyl)prop-2-enamide] | 87.0836%
C=CC(=O)NCc1ccnc(OC2CCOCC2)c1 [2-B17, N-{[2-(oxan-4-yloxy)pyridin-4-yl]methyl}prop-2-enamide] | 92.203%
N#CC(=Cc1c(F)cccc1Cl)C(=O)Nc1ccc(C(=O)O)cc1 [9-P06, 4-[3-(2-chloro-6-fluorophenyl)-2-cyanoprop-2-enamido]benzoic acid] | 99.3202%
COc1ccc(OC)c(C(C)NC(=O)CCl)c1 (stereo not shown) [4-M19, 2-chloro-N-[1-(2,5-dimethoxyphenyl)ethyl]acetamide] | 102.48%
CC(Cl)C(=O)NC(=O)NC1CCS(=O)(=O)C1 (stereo not shown) [4-J13, 3-(2-chloropropanoyl)-1-(1,1-dioxo-1lambda6-thiolan-3-yl)urea] | 97.4768%
C=CC(=O)Nc1ccc2c(=O)onc(C)c2c1 [1-N12, N-(4-methyl-1-oxo-1H-2,3-benzoxazin-6-yl)prop-2-enamide] | 81.4524%
Cc1c(Cl)cccc1NC(=O)CNC(=O)CCl [5-N20, 2-chloro-N-{[(3-chloro-2-methylphenyl)carbamoyl]methyl}acetamide] | 102.049%
C=CC(=O)NC(C1CCC1)C1CCOC1 (stereo not shown) [1-O22, N-[cyclobutyl(oxolan-3-yl)methyl]prop-2-enamide] | 98.0568%
C=CC(=O)N1CCC(C(=O)NCc2cn3ccc(C)nc3n2)CC1 [3-D12, N-({7-methylimidazo[1,2-a]pyrimidin-2-yl}methyl)-1-(prop-2-enoyl)piperidine-4-carboxamide] | 99.3237%

SMILES | % of control remaining
CCOc1ccc(C=C(C#N)C(=O)N2CCc3sccc3C2)cc1 [8-G22, 3-(4-ethoxyphenyl)-2-{4H,5H,6H,7H-thieno[3,2-c]pyridine-5-carbonyl}prop-2-enenitrile] | 82.3249%
Cn1cc(C=C(C#N)C(=O)NCc2ccccc2)cn1 [8-J10, N-benzyl-2-cyano-3-(1-methyl-1H-pyrazol-4-yl)prop-2-enamide] | 68.8647%
C=CC(=O)NCc1oc(CC)nc1C [3-P15, N-[(2-ethyl-4-methyl-1,3-oxazol-5-yl)methyl]prop-2-enamide] | 104.44%
COc1ccc(C(NC(=O)CCl)c2ccccc2)cc1 (stereo not shown) [4-J11, 2-chloro-N-[(4-methoxyphenyl)(phenyl)methyl]acetamide] | 108.001%
CC(Cl)C(=O)Nc1ccc(Cl)cc1C(F)(F)F (stereo not shown) [4-A14, 2-chloro-N-[4-chloro-2-(trifluoromethyl)phenyl]propanamide] | 102.825%
C=CC(=O)N1CCC(C(=O)N2CCOC(c3cccc(F)c3)C2)CC1 (stereo not shown) [2-L14, 1-{4-[2-(3-fluorophenyl)morpholine-4-carbonyl]piperidin-1-yl}prop-2-en-1-one] | 86.1816%
C=CC(=O)Nc1ccc(S(C)(=O)=O)cc1OCC [2-C08, N-(2-ethoxy-4-methanesulfonylphenyl)prop-2-enamide] | 93.747%
CC(Cl)C(=O)N(C)CCn1c(=O)oc2ccccc21 (stereo not shown) [7-H15, 2-chloro-N-methyl-N-[2-(2-oxo-2,3-dihydro-1,3-benzoxazol-3-yl)ethyl]propanamide] | 82.4715%
C[C@@H](NC(=O)CCl)c1cnnn1C [7-F16, 2-chloro-N-[(1R)-1-(1-methyl-1H-1,2,3-triazol-5-yl)ethyl]acetamide] | 76.524%
C=CC(=O)N(Cc1cc(-c2ccco2)n(C)n1)C1CCCCC1 [1-J15, N-cyclohexyl-N-{[5-(furan-2-yl)-1-methyl-1H-pyrazol-3-yl]methyl}prop-2-enamide] | 68.7593%
CC(Cl)C(=O)N1CCC(Oc2cnc3ccccc3n2)CC1 (stereo not shown) [7-I18, 2-chloro-1-[4-(quinoxalin-2-yloxy)piperidin-1-yl]propan-1-one] | 72.1626%
O=C1C=CC(=O)N1c1cccc([N+](=O)[O-])c1 [10-P15, 1-(3-nitrophenyl)-2,5-dihydro-1H-pyrrole-2,5-dione] | 35.6906%
N#CC(=Cc1ccsc1)C(=O)Nc1ccc(Cl)cc1 [9-I06, N-(4-chlorophenyl)-2-cyano-3-(thiophen-3-yl)prop-2-enamide] | 82.8688%
O=C(CCl)c1ccc(NC(=O)c2ccccc2)cc1 [10-B06, N-[4-(2-chloroacetyl)phenyl]benzamide] | 21.5079%
C=CC(=O)NC[C@@H]1C[C@H](F)CN1Cc1csc(C)n1 [2-I09, N-{[(2S,4S)-4-fluoro-1-[(2-methyl-1,3-thiazol-4-yl)methyl]pyrrolidin-2-yl]methyl}prop-2-enamide] | 90.6591%
C=CC(=O)NC1CCc2nc(CC)nn2C1 (stereo not shown) [1-G22, N-{2-ethyl-5H,6H,7H,8H-[1,2,4]triazolo[1,5-a]pyridin-6-yl}prop-2-enamide] | 105.979%
O=C(CCl)Nc1c(Cl)cc(Cl)cc1Cl [5-B16, 2-chloro-N-(2,4,6-trichlorophenyl)acetamide] | 98.3503%
C=CC(=O)NCc1nc2ccccc2n1C1CC1 [2-N03, N-[(1-cyclopropyl-1H-1,3-benzodiazol-2-yl)methyl]prop-2-enamide] | 105.172%
C=CC(=O)N(Cc1c(F)cc(C)cc1Cl)C1CCCOCC1 (stereo not shown) [2-A13, N-[(2-chloro-6-fluoro-4-methylphenyl)methyl]-N-(oxepan-4-yl)prop-2-enamide] | 81.8585%
CC1CN(C(=O)c2ccc(NC(=O)C(C)Cl)cc2)CC(C)O1 (stereo not shown) [7-E22, 2-chloro-N-[4-(2,6-dimethylmorpholine-4-carbonyl)phenyl]propanamide] | 87.4938%
CC(c1cccc(NC(=O)c2ccccc2)c1)N(C)C(=O)CCl (stereo not shown) [6-M22, N-{3-[1-(2-chloro-N-methylacetamido)ethyl]phenyl}benzamide] | 100.559%
O=C(CCl)N(Cc1ccccc1)Cc1ccc(F)cc1 [5-I06, N-benzyl-2-chloro-N-[(4-fluorophenyl)methyl]acetamide] | 81.2021%
C=CC(=O)NCc1nnc(C(F)(F)F)s1 [1-O14, N-{[5-(trifluoromethyl)-1,3,4-thiadiazol-2-yl]methyl}prop-2-enamide] | 90.7324%

Reference: paper PMC11995724, “Antibiotic target discovery by integrated phenotypic and activity-based profiling of electrophilic fragments” (Cell chemical biology, 2025)
